Reference: the supplement of paper PMC4967469
The IC50 comes from the fitted curve, where viability falls to half of the control; fits outside the tested doses are given as limits. AUC is the area under the same curve over the 256-fold range up to the top dose, as a fraction: 1 means no effect, lower means more sensitive. For some assays here: The top dose, if marked as inferred, was derived from the fitted curves, not read from the paper. For some assays here: Drugs with an entry number were screened twice under separate entries, and the two screens often disagree.

Tests used:
Experiment in all cases: Viability of human cancer cell lines after 72 h of drug (GDSC screen)
PHA-793887 = compound: CC(C)CC(=O)Nc1n[nH]c2c1CN(C(=O)C1CCN(C)CC1)C2(C)C [PHA-793887]; details: top dose 10.24 µM
Procedure: (§1)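 Human cancer cell lines in 384-well plates, medium with 10% serum, drug for 72 h over a 256-fold dose range (nine 2-fold or five 4-fold steps up to the top dose). Adherent lines were fixed and stained with the nucleic acid dye Syto60, suspension lines read with resazurin; signal relative to control wells, capped at 0 and 100%. One two-parameter sigmoid per drug and line, fitted in a mixed model over all curves with the slope shared within a line.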

AZD-0530 = compound: CN1CCN(CCOc2cc(OC3CCOCC3)c3c(Nc4c(Cl)ccc5c4OCO5)ncnc3c2)CC1 [AZD-0530]; details: top dose 2 µM
Procedure: as §1

Y-39983 = compound: C[C@@H](N)c1ccc(C(=O)Nc2ccnc3[nH]ccc23)cc1 [Y-39983]; details: top dose 20 µM; top dose inferred
Procedure: as §1

Epothilone B = compound: C/C(=C\c1csc(C)n1)[C@@H]1C[C@@H]2O[C@]2(C)CCC[C@H](C)[C@H](O)[C@@H](C)C(=O)C(C)(C)[C@@H](O)CC(=O)O1 [Epothilone B]; details: top dose 0.032 µM; top dose inferred
Procedure: as §1

Pyrimethamine = compound: CCc1nc(N)nc(N)c1-c1ccc(Cl)cc1 [Pyrimethamine]; details: top dose 20 µM; top dose inferred
Procedure: as §1

Imatinib = compound: Cc1ccc(NC(=O)c2ccc(CN3CCN(C)CC3)cc2)cc1Nc1nccc(-c2cccnc2)n1 [Imatinib]; details: top dose 2 µM
Procedure: as §1

TPCA-1 = compound: NC(=O)Nc1sc(-c2ccc(F)cc2)cc1C(N)=O [TPCA-1]; details: top dose 20 µM
Procedure: as §1

PLX4720 = compound: CCCS(=O)(=O)Nc1ccc(F)c(C(=O)c2c[nH]c3ncc(Cl)cc23)c1F [PLX4720]; details: top dose 10 µM
Procedure: as §1

[1] = screen: GDSC drug entry 1371, top dose inferred

Cell Line	AUC (PHA-793887)	IC50 (PHA-793887) [µM]	AUC (AZD-0530)	IC50 (AZD-0530) [µM]	AUC (Y-39983)	IC50 (Y-39983) [µM]	AUC (Epothilone B)	IC50 (Epothilone B) [µM]	AUC (Pyrimethamine)	IC50 (Pyrimethamine) [µM]	AUC (Imatinib)	IC50 (Imatinib) [µM]	AUC (TPCA-1)	IC50 (TPCA-1) [µM]	AUC (PLX4720; screen: GDSC drug entry 1036)	IC50 (PLX4720; screen: GDSC drug entry 1036) [µM]	AUC (PLX4720; [1])	IC50 (PLX4720; [1]) [µM]
HCC1599 (breast, suspension)	0.54	0.836	0.934	> 2	0.841	17	0.712	0.00876	0.819	13.6	0.97	> 2	0.751	7.47	–	–	–	–
IST-SL2 (small cell lung carcinoma, suspension)	0.567	0.975	0.9	> 2	–	–	0.722	0.00845	0.796	9.24	0.984	> 2	–	–	0.95	> 10	0.972	> 10
SW982 (soft tissue, adherent)	0.7	2.38	0.864	1.84	0.848	15.6	0.365	0.000836	–	–	0.984	> 2	0.817	11.6	0.797	4.87	0.819	5.93
TE-11 (oesophagus, adherent)	0.99	> 10.2	0.85	1.31	0.987	> 20	0.457	0.00154	–	–	0.97	> 2	0.974	> 20	0.929	> 10	0.958	> 10
TK10 (kidney, adherent)	0.928	> 10.2	0.809	1.32	0.908	> 20	0.51	0.00214	0.757	8.25	–	–	0.691	4.86	0.934	> 10	0.968	> 10
TUR (B-cell lymphoma, suspension)	0.379	0.305	0.988	> 2	0.885	19	0.485	0.00183	0.978	> 20	–	–	0.422	0.778	0.917	> 10	0.951	> 10
U-87-MG (glioma, adherent)	0.882	> 10.2	0.98	> 2	0.975	> 20	0.792	0.0173	0.962	> 20	–	–	0.985	> 20	0.981	> 10	0.952	> 10
U-698-M (B-cell leukaemia, suspension)	0.756	3.51	0.985	> 2	0.75	6.53	0.692	0.00692	0.889	> 20	–	–	0.713	5	0.937	> 10	0.961	> 10
UACC-257 (melanoma, adherent)	0.84	9.71	0.973	> 2	0.96	> 20	0.793	0.0188	0.603	2.57	–	–	0.894	> 20	0.632	1.58	0.633	1.6
VAL (B-cell lymphoma, suspension)	0.594	1.16	0.986	> 2	0.793	9.15	0.839	0.022	0.726	5.5	–	–	0.599	2.34	0.984	> 10	0.983	> 10
VCaP (prostate, adherent)	0.905	> 10.2	0.978	> 2	0.987	> 20	0.67	0.00608	0.978	> 20	–	–	0.764	7.54	0.987	> 10	0.986	> 10
WIL2-NS (lymphoid neoplasm, suspension)	0.129	0.061	0.962	> 2	0.84	10.2	0.541	0.00253	0.492	1.19	–	–	0.551	1.68	0.992	> 10	0.99	> 10
WSU-DLCL2 (B-cell lymphoma, suspension)	0.858	6.25	0.986	> 2	0.942	> 20	0.991	> 0.032	0.984	> 20	–	–	0.937	> 20	0.983	> 10	0.93	> 10
WSU-NHL (lymphoid neoplasm, suspension)	0.884	8.77	0.976	> 2	0.631	2.73	0.626	0.00426	0.918	> 20	–	–	0.411	0.737	0.936	> 10	0.99	> 10
YT (lymphoid neoplasm, suspension)	0.886	8.32	0.987	> 2	0.878	15.1	0.821	0.015	0.99	> 20	–	–	0.077	< 0.0781	0.837	5.32	0.992	> 10
no-10 (glioma, adherent)	0.676	2.23	0.97	> 2	0.935	> 20	0.65	0.00573	0.954	> 20	–	–	0.969	> 20	–	–	0.966	> 10
no-11 (glioma, adherent)	0.873	> 10.2	0.977	> 2	0.96	> 20	0.861	> 0.032	0.982	> 20	–	–	0.92	> 20	0.952	> 10	0.978	> 10
